{"source": "the supplement of paper PMC4723716", "note": "± gives the uncertainty stated by the source. In all, about 9,900 compounds were measured (“viability index relative to DMSO control”: median about 1, lowest 2% from about 0.85 on). Some of the results follow.", "data": [{"test_system": "Plasmodium falciparum NF54 stage V gametocytes", "assay": "viability index relative to DMSO control (fraction); higher = less gametocyte killing", "conditions": "2.5 µM, library set: Broad Institute DOS, incubation time: 72 h", "procedure,_shortened": "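P. falciparum NF54 stage V gametocytes (serum-free medium, 0.75% gametocytemia, 1.25% hematocrit) were exposed to compound at 2.5 µM for 72 hr at 37°C under low oxygen, then stained with MitoTracker Red CMXRos and saponin for one to two hours. Red particles of 20–70 µm2 in one field per well were counted, and the viability index is that count scaled to the plate mean of solvent-only wells.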", "values": [{"smiles": "O=C(NC[C@@H]1[C@@H](c2ccccc2)[C@@H](CO)N1Cc1ccccn1)C1CCCC1", "viability index": "0.963 ± 0.067"}, {"smiles": "CO[C@@H]1CN(C)C(=O)c2ccc(NC(=O)c3cc(C)on3)cc2OC[C@@H](C)NC[C@@H]1C", "viability index": "1 ± 0.043"}, {"smiles": "CCCNC(=O)N[C@H]1C=C[C@@H](CC(=O)N2CCN(C)CC2)O[C@@H]1CO", "viability index": "0.988 ± 0.032"}, {"smiles": "CC(=O)N1[C@H](CO)[C@@H](c2ccccc2)[C@H]1CN(C)S(=O)(=O)c1ccccc1", "viability index": "1.03 ± 0.052"}, {"smiles": "Cc1ccc(S(=O)(=O)N2CC[C@@H]3[C@H]2c2cc(-c4cccc(C(=O)N(C)C)c4)ccc2N[C@@H]3CO)cc1", "viability index": "0.885 ± 0.055"}, {"smiles": "N#C[C@@H]1[C@@H](c2ccccc2-c2ccccc2F)[C@@H](CO)N1C(=O)C1CCC1", "viability index": "1.14 ± 0.17"}, {"smiles": "OC[C@@H]1[C@@H](c2ccccc2)C2(CN(Cc3nccs3)C2)N1CC1CCOCC1", "viability index": "1.04 ± 0.06"}, {"smiles": "C[C@@H]1C/C=C/C[C@H](c2cccc(Cl)c2)NC(=O)[C@@H](Cc2ccccc2)N(C)C(=O)c2ccccc2O1.C[C@@H]1C/C=C\\C[C@H](c2cccc(Cl)c2)NC(=O)[C@@H](Cc2ccccc2)N(C)C(=O)c2ccccc2O1", "viability index": "0.9516 ± 0.0088"}, {"smiles": "O=C1CCC(=O)N[C@H](c2ccc(F)cc2)C/C=C\\C[C@@H](c2ccc(F)cc2)N1", "viability index": "0.946 ± 0.032"}, {"smiles": "CC(C)C#Cc1ccc([C@@H]2[C@H]3CN(S(=O)(=O)c4ccccc4)CC(=O)N3[C@H]2CO)cc1", "viability index": "0.976 ± 0.091"}, {"smiles": "C[C@@H]1CN([C@H](C)CO)C(=O)c2cc(C#CC3(O)CCCC3)cnc2O[C@H]1CN(C)S(=O)(=O)c1cccc(F)c1", "viability index": "1.03 ± 0.049"}, {"smiles": "C[C@@H]1CN([C@@H](C)CO)C(=O)Cc2cc(N(C)C)ccc2O[C@H]1CN(C)Cc1ccc(-c2ccccc2)cc1", "viability index": "0.902 ± 0.065"}, {"smiles": "Cc1noc(C)c1NC(=O)Nc1ccc2c(c1)C(=O)N(C)[C@H]1CC[C@H](CC(=O)N[C@H]3CCN(Cc4ccccc4)C3)O[C@H]1CO2", "viability index": "1 ± 0.08"}, {"smiles": "COc1ccc2c3c([nH]c2c1)[C@H](CO)N(C[C@]31CCN(Cc2ccncc2)CC1)C(=O)CC1CC1", "viability index": "0.934 ± 0.098"}, {"smiles": "CC1C=NC(S(=O)(=O)N2CC[C@H]3[C@@H](CO)N(C)c4ccc(C5=CCCCC5)cc4[C@H]32)=N1", "note": "(some centres undefined)", "viability index": "1.15 ± 0.072"}, {"smiles": "N#Cc1ccc(-c2cccc(-c3nc(C(=O)O)cc4c3[C@H](CCO)N(CC3CCOCC3)C4)c2)cc1", "viability index": "0.954 ± 0.064"}, {"smiles": "COc1ccc(S(=O)(=O)Nc2ccc3c(c2)CC(=O)N([C@H](C)CO)C[C@@H](C)[C@H](CN(C)C(=O)Nc2c(C)noc2C)O3)cc1", "viability index": "0.936 ± 0.14"}, {"smiles": "COc1ccccc1-c1ccc([C@@H]2[C@H](CO)N3CCCCN(C(=O)c4cccnc4)C[C@@H]23)cc1", "viability index": "0.978 ± 0.029"}, {"smiles": "OC[C@H]1[C@H](c2ccc(-c3cccc(F)c3)cc2)[C@H]2CN(Cc3cncnc3)CCCCN21", "viability index": "0.974 ± 0.075"}]}]}
